From patent US11806359B2 (priority 2020, dated 2023)

Key:
[1] = test system: Zika virus (ZIKV strain PRVABC59); format: cell-based; settings: Vero E6 cells; for antiviral activity against Zika virus: MOI 0.2, 1 hr exposure, 48 hr incubation
[2] = test system: Zikavirus; settings: Barrows et al. 2016; cited from earlier work
[3] = test system: huPBMCs; experiment: Cytotoxicity/apoptosis in primary huPBMCs, Annexin V-FITC/PI staining; format: cell-based, human; settings: lowest concentration, 72 hrs
Procedure: Primary buffy-coat huPBMCs were isolated and stimulated with phytohemagglutinin (PHA) and cultured in the presence of recombinant human interleukin-2 (hIL-2). The cells were then treated for 72 hrs with increasing concentrations of oleandrin or a N. oleander extract, or with increasing volumes of the Vehicle. The samples were subsequently stained with Annexin V-FITC and PI and the relative percentages of apoptotic (i.e., Annexin V-FITC and/or PI-positive) cells per field were quantified by confocal fluorescence-microscopy and counting in-triplicate.
Cytotoxic effects of the Vehicle control, N. oleander extract, and the oleandrin compound were assessed by treating primary huPBMCs for 72 hrs, and then the cultures were stained with Annexin V-FITC and PI. The relative percentages of apoptotic (i.e., Annexin V-FITC and/or PI-positive) cells were quantified by fluorescence-microscopy and counting triplicate visual fields using a 20× objective lens. The total numbers of cells were determined using DIC phase-contrast microscopy. Cyclophosphamide (50 μM)-treated cells were included as a positive control for apoptosis. NA indicates the number of cells in this sample was too low for accurate assessment due to higher toxicity. […]

SMILES	antiviral activity against Zika virus [1]	antiviral activity against Zika virus [2]	antiviral activity against Zika virus relative to digoxin ([1]; MOI 0.2)	cytotoxicity in huPBMCs [3]
C[C@H]1O[C@@H](O[C@H]2[C@@H](O)C[C@H](O[C@H]3[C@@H](O)C[C@H](O[C@H]4CC[C@@]5(C)[C@H](CC[C@@H]6[C@@H]5C[C@@H](O)[C@]5(C)[C@@H](C7=CC(=O)OC7)CC[C@]65O)C4)O[C@@H]3C)O[C@@H]2C)C[C@H](O)[C@@H]1O [digoxin, reference compound]	antiviral activity	demonstrates antiviral activity against Zikavirus		
CO[C@H]1C[C@H](O[C@H]2CC[C@@]3(C)[C@H](CC[C@@H]4[C@@H]3CC[C@]3(C)[C@@H](C5=CC(=O)OC5)[C@@H](OC(C)=O)C[C@]43O)C2)O[C@@H](C)[C@@H]1O [oleandrin]	antiviral activity		~8 fold	35-37%
